Substitutions are numbered along the chain they refer to; changes in the protein carry UniProt numbers. This is one part of the list.
T1: RBFOX1 RRM RbFoxmut (Fox-RRM*) (Homo sapiens, UniProt Q9NWB1 109-208, R118D;E147R;N151S;E152T)
T1 sequence: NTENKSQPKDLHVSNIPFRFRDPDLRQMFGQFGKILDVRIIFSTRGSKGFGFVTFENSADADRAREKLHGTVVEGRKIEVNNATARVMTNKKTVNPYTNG

B1: CUAUCAA (DNA:RNA)
RNA: GGGAGACCGGAAUUCAGAUUGUCCCUAUCAAUUAAAUCCCGUCGUAGCCACCA
DNA 1: CAATCTGAATTCCGGTCTCCC
DNA 2: TGGTGGCTACGACGGGATT
B2: CGACCCG (DNA:RNA)
RNA: B1 RNA with U26G, U28C, A30C, A31G
DNA 1: CAATCTGAATTCCGGTCTCCC
DNA 2: TGGTGGCTACGACGGGATT
B3: CCGCUGC (DNA:RNA)
RNA: B1 RNA with U26C, A27G, U28C, C29U, A30G, A31C
DNA 1: CAATCTGAATTCCGGTCTCCC
DNA 2: TGGTGGCTACGACGGGATT
B4: CCGGACU (DNA:RNA)
RNA: B1 RNA with U26C, A27G, U28G, C29A, A30C, A31U
DNA 1: CAATCTGAATTCCGGTCTCCC
DNA 2: TGGTGGCTACGACGGGATT
B5: UCGGAAA (DNA:RNA)
RNA: B1 RNA with C25U, U26C, A27G, U28G, C29A
DNA 1: CAATCTGAATTCCGGTCTCCC
DNA 2: TGGTGGCTACGACGGGATT
B6: AGACAUC (DNA:RNA)
RNA: B1 RNA with C25A, U26G, U28C, C29A, A30U, A31C
DNA 1: CAATCTGAATTCCGGTCTCCC
DNA 2: TGGTGGCTACGACGGGATT
B7: CGGAGAG (DNA:RNA)
RNA: B1 RNA with U26G, A27G, U28A, C29G, A31G
DNA 1: CAATCTGAATTCCGGTCTCCC
DNA 2: TGGTGGCTACGACGGGATT
B8: UAUGCAC (DNA:RNA)
RNA: B1 RNA with C25U, U26A, A27U, U28G, A31C
DNA 1: CAATCTGAATTCCGGTCTCCC
DNA 2: TGGTGGCTACGACGGGATT
B9: GCCAAUA (DNA:RNA)
RNA: B1 RNA with C25G, U26C, A27C, U28A, C29A, A30U
DNA 1: CAATCTGAATTCCGGTCTCCC
DNA 2: TGGTGGCTACGACGGGATT
B10: UGACGGA (DNA:RNA)
RNA: B1 RNA with C25U, U26G, U28C, C29G, A30G
DNA 1: CAATCTGAATTCCGGTCTCCC
DNA 2: TGGTGGCTACGACGGGATT
B11: CUACCAU (DNA:RNA)
RNA: B1 RNA with U28C, A31U
DNA 1: CAATCTGAATTCCGGTCTCCC
DNA 2: TGGTGGCTACGACGGGATT
B12: AGAACCC (DNA:RNA)
RNA: B1 RNA with C25A, U26G, U28A, A30C, A31C
DNA 1: CAATCTGAATTCCGGTCTCCC
DNA 2: TGGTGGCTACGACGGGATT
B13: AGGAUAA (DNA:RNA)
RNA: B1 RNA with C25A, U26G, A27G, U28A, C29U
DNA 1: CAATCTGAATTCCGGTCTCCC
DNA 2: TGGTGGCTACGACGGGATT
B14: UCCGAGU (DNA:RNA)
RNA: GGGAGACCGGAAUUCAGAUUGUCCUCCGAGUUUAAAUCCCGUCGUAGCCACCA
DNA 1: CAATCTGAATTCCGGTCTCCC
DNA 2: TGGTGGCTACGACGGGATT
B15: CGACGUG (DNA:RNA)
RNA: B1 RNA with U26G, U28C, C29G, A30U, A31G
DNA 1: CAATCTGAATTCCGGTCTCCC
DNA 2: TGGTGGCTACGACGGGATT
B16: AGACGAU (DNA:RNA)
RNA: B1 RNA with C25A, U26G, U28C, C29G, A31U
DNA 1: CAATCTGAATTCCGGTCTCCC
DNA 2: TGGTGGCTACGACGGGATT
B17: GUCUUCG (DNA:RNA)
RNA: B1 RNA with C25G, A27C, C29U, A30C, A31G
DNA 1: CAATCTGAATTCCGGTCTCCC
DNA 2: TGGTGGCTACGACGGGATT
B18: UAAACAA (DNA:RNA)
RNA: B1 RNA with C25U, U26A, U28A
DNA 1: CAATCTGAATTCCGGTCTCCC
DNA 2: TGGTGGCTACGACGGGATT
B19: GUCAAUC (DNA:RNA)
RNA: B14 RNA with U25G, C26U, G28A, G30U, U31C
DNA 1: CAATCTGAATTCCGGTCTCCC
DNA 2: TGGTGGCTACGACGGGATT
B20: CUGGUAU (DNA:RNA)
RNA: B1 RNA with A27G, U28G, C29U, A31U
DNA 1: CAATCTGAATTCCGGTCTCCC
DNA 2: TGGTGGCTACGACGGGATT
B21: AGUUCUU (DNA:RNA)
RNA: B1 RNA with C25A, U26G, A27U, A30U, A31U
DNA 1: CAATCTGAATTCCGGTCTCCC
DNA 2: TGGTGGCTACGACGGGATT
B22: CGUUCUG (DNA:RNA)
RNA: B1 RNA with U26G, A27U, A30U, A31G
DNA 1: CAATCTGAATTCCGGTCTCCC
DNA 2: TGGTGGCTACGACGGGATT
B23: UUUUUUU (DNA:RNA)
RNA: B1 RNA with C25U, A27U, C29U, A30U, A31U
DNA 1: CAATCTGAATTCCGGTCTCCC
DNA 2: TGGTGGCTACGACGGGATT
B24: CGUAGCU (DNA:RNA)
RNA: B1 RNA with U26G, A27U, U28A, C29G, A30C, A31U
DNA 1: CAATCTGAATTCCGGTCTCCC
DNA 2: TGGTGGCTACGACGGGATT
B25: GAGUUUA (DNA:RNA)
RNA: B1 RNA with C25G, U26A, A27G, C29U, A30U
DNA 1: CAATCTGAATTCCGGTCTCCC
DNA 2: TGGTGGCTACGACGGGATT
B26: AACUAAC (DNA:RNA)
RNA: B1 RNA with C25A, U26A, A27C, C29A, A31C
DNA 1: CAATCTGAATTCCGGTCTCCC
DNA 2: TGGTGGCTACGACGGGATT
B27: GCUUCGA (DNA:RNA)
RNA: B1 RNA with C25G, U26C, A27U, A30G
DNA 1: CAATCTGAATTCCGGTCTCCC
DNA 2: TGGTGGCTACGACGGGATT
B28: ACAAUCG (DNA:RNA)
RNA: B1 RNA with C25A, U26C, U28A, C29U, A30C, A31G
DNA 1: CAATCTGAATTCCGGTCTCCC
DNA 2: TGGTGGCTACGACGGGATT
B29: GGUCGUU (DNA:RNA)
RNA: B14 RNA with U25G, C26G, C27U, G28C, A29G, G30U
DNA 1: CAATCTGAATTCCGGTCTCCC
DNA 2: TGGTGGCTACGACGGGATT
B30: CCCUACU (DNA:RNA)
RNA: B14 RNA with U25C, G28U, G30C
DNA 1: CAATCTGAATTCCGGTCTCCC
DNA 2: TGGTGGCTACGACGGGATT
B31: AAUUGGU (DNA:RNA)
RNA: B14 RNA with U25A, C26A, C27U, G28U, A29G
DNA 1: CAATCTGAATTCCGGTCTCCC
DNA 2: TGGTGGCTACGACGGGATT

Target: T1, RBFOX1 RRM RbFoxmut (Fox-RRM*)
Assay: EMSA; HiTS-Eq, 1 nM pool, 10 min; buffer printed only for the single-RNA assays: 10 mM Tris pH 7.5, 150 mM NaCl, 3.4 mM EDTA, 0.001% NP-40, 30 C
Conditions: tags: His6 N-terminal (pET28a); label: 5' 32P
In short: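 Purified RbFox RRM (wild type or mutant) was equilibrated for 10 min in 50 µL with 1 nM of a 5′-radiolabelled pool of RNA with 7 randomized nucleotides, its flanks annealed to DNA oligonucleotides, across increasing protein concentrations. Free RNA was separated by 8% native PAGE, excised, reverse-transcribed, PCR-barcoded and sequenced on an Illumina HiSeq 2500. Relative association constants came from read-count changes of each variant against the control reaction, normalised to the cognate motif.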

**Q.** With B1 as the binder, how does the binding signal read?
**A.** 0.0659 KA relative to UGCAUGU

**Q.** How did the binding signal turn out when B2 was run?
**A.** 0.0699 KA relative to UGCAUGU

**Q.** B3 was tested. Which binding signal did it give?
**A.** 0.114 KA relative to UGCAUGU

**Q.** With B4 as the binder, how does the binding signal read?
**A.** 0.0659 KA relative to UGCAUGU

**Q.** How did the binding signal turn out when B5 was run?
**A.** 0.081 KA relative to UGCAUGU

**Q.** B6 was tested. Which binding signal did it give?
**A.** 0.055 KA relative to UGCAUGU

**Q.** B7 was tested. Which binding signal did it give?
**A.** 0.0916 KA relative to UGCAUGU

**Q.** B8 was tested. Which binding signal did it give?
**A.** 0.0765 KA relative to UGCAUGU

**Q.** For B9, which binding signal is on record?
**A.** 0.0925 KA relative to UGCAUGU

**Q.** Which binding signal does the source give for B10 here?
**A.** 0.0634 KA relative to UGCAUGU

**Q.** With B11 as the binder, how does the binding signal read?
**A.** 0.0627 KA relative to UGCAUGU

**Q.** Which binding signal does the source give for B12 here?
**A.** 0.0712 KA relative to UGCAUGU

**Q.** B13 was tested. Which binding signal did it give?
**A.** 0.0804 KA relative to UGCAUGU

**Q.** With B14 as the binder, how does the binding signal read?
**A.** 0.1 KA relative to UGCAUGU

**Q.** Which binding signal does the source give for B15 here?
**A.** 0.0961 KA relative to UGCAUGU

**Q.** How did the binding signal turn out when B16 was run?
**A.** 0.0703 KA relative to UGCAUGU

**Q.** B17 was tested. Which binding signal did it give?
**A.** 0.245 KA relative to UGCAUGU

**Q.** Which binding signal does the source give for B18 here?
**A.** 0.0531 KA relative to UGCAUGU

**Q.** B19 was tested. Which binding signal did it give?
**A.** 0.0561 KA relative to UGCAUGU

**Q.** B20 was tested. Which binding signal did it give?
**A.** 0.147 KA relative to UGCAUGU

**Q.** B21 was tested. Which binding signal did it give?
**A.** 0.086 KA relative to UGCAUGU

**Q.** Which binding signal does the source give for B22 here?
**A.** 0.0983 KA relative to UGCAUGU

**Q.** How did the binding signal turn out when B23 was run?
**A.** 0.0992 KA relative to UGCAUGU

**Q.** With B24 as the binder, how does the binding signal read?
**A.** 0.126 KA relative to UGCAUGU

**Q.** Which binding signal does the source give for B25 here?
**A.** 0.113 KA relative to UGCAUGU

**Q.** How did the binding signal turn out when B26 was run?
**A.** 0.0803 KA relative to UGCAUGU

**Q.** For B27, which binding signal is on record?
**A.** 0.13 KA relative to UGCAUGU

**Q.** For B28, which binding signal is on record?
**A.** 0.0546 KA relative to UGCAUGU

**Q.** How did the binding signal turn out when B29 was run?
**A.** 0.12 KA relative to UGCAUGU

**Q.** For B30, which binding signal is on record?
**A.** 0.0737 KA relative to UGCAUGU

**Q.** B31 was tested. Which binding signal did it give?
**A.** 0.119 KA relative to UGCAUGU

From article PMC9911399, “Two distinct binding modes provide the RNA-binding protein RbFox with extraordinary sequence specificity”
